# From the supplement of paper PMC12423691
# This is one part of the list. Binding of human transcription factors and regulators to the viral nucleoprotein by AlphaScreen, crude cell-free proteins, amounts not normalised, one pass. Fold of the Venus control; higher = more signal. No active / inactive call. Single-pass screen; sequences are the whole Swiss-Prot entries looked up by name.
# B1: NEUROG2, Q9H2A3 (protein)
# chain: MFVKSETLELKEEEDVLVLLGSASPALAALTPLSSSADEEEEEEPGASGGARRQRGAEAGQGARGGVAAGAEGCRPARLLGLVHDCKRRPSRARAVSRGAKTAETVQRIKKTRRLKANNRERNRMHNLNAALDALREVLPTFPEDAKLTKIETLRFAHNYIWALTETLRLADHCGGGGGGLPGALFSEAVLLSPGGASAALSSSGDSPSPASTWSCTNSPAPSSSVSSNSTSPYSCTLSPASPAGSDMDYWQPPPPDKHRYAPHLPIARDCI
# B2: ESRRB, O95718 (protein)
# chain: MSSDDRHLGSSCGSFIKTEPSSPSSGIDALSHHSPSGSSDASGGFGLALGTHANGLDSPPMFAGAGLGGTPCRKSYEDCASGIMEDSAIKCEYMLNAIPKRLCLVCGDIASGYHYGVASCEACKAFFKRTIQGNIEYSCPATNECEITKRRRKSCQACRFMKCLKVGMLKEGVRLDRVRGGRQKYKRRLDSESSPYLSLQISPPAKKPLTKIVSYLLVAEPDKLYAMPPPGMPEGDIKALTTLCDLADRELVVIIGWAKHIPGFSSLSLGDQMSLLQSAWMEILILGIVYRSLPYDDKLVYAEDYIMDEEHSRLAGLLELYRAILQLVRRYKKLKVEKEEFVTLKALALANSDSMYIEDLEAVQKLQDLLHEALQDYELSQRHEEPWRTGKLLLTLPLLRQTAAKAVQHFYSVKLQGKVPMHKLFLEMLEAKV
# B3: TRIM26, Q12899 (protein)
# chain: MATSAPLRSLEEEVTCSICLDYLRDPVTIDCGHVFCRSCTTDVRPISGSRPVCPLCKKPFKKENIRPVWQLASLVENIERLKVDKGRQPGEVTREQQDAKLCERHREKLHYYCEDDGKLLCVMCRESREHRPHTAVLMEKAAQPHREKILNHLSTLRRDRDKIQGFQAKGEADILAALKKLQDQRQYIVAEFEQGHQFLREREEHLLEQLAKLEQELTEGREKFKSRGVGELARLALVISELEGKAQQPAAELMQDTRDFLNRYPRKKFWVGKPIARVVKKKTGEFSDKLLSLQRGLREFQGKLLRDLEYKTVSVTLDPQSASGYLQLSEDWKCVTYTSLYKSAYLHPQQFDCEPGVLGSKGFTWGKVYWEVEVEREGWSEDEEEGDEEEEGEEEEEEEEAGYGDGYDDWETDEDEESLGDEEEEEEEEEEEVLESCMVGVARDSVKRKGDLSLRPEDGVWALRLSSSGIWANTSPEAELFPALRPRRVGIALDYEGGTVTFTNAESQELIYTFTATFTRRLVPFLWLKWPGTRLLLRP
# B4: FERD3L, Q96RJ6 (protein)
# chain: MAAYPESCVDTTVLDFVADLSLASPRRPLLCDFAPGVSLGDPALALREGRPRRMARFEEGDPEEEECEVDQGDGEEEEEEERGRGVSLLGRPKRKRVITYAQRQAANIRERKRMFNLNEAFDQLRRKVPTFAYEKRLSRIETLRLAIVYISFMTELLESCEKKESG
# B5: BCL6B, Q8N143 (protein)
# chain: MGSPAAPEGALGYVREFTRHSSDVLGNLNELRLRGILTDVTLLVGGQPLRAHKAVLIACSGFFYSIFRGRAGVGVDVLSLPGGPEARGFAPLLDFMYTSRLRLSPATAPAVLAAATYLQMEHVVQACHRFIQASYEPLGISLRPLEAEPPTPPTAPPPGSPRRSEGHPDPPTESRSCSQGPPSPASPDPKACNWKKYKYIVLNSQASQAGSLVGERSSGQPCPQARLPSGDEASSSSSSSSSSSEEGPIPGPQSRLSPTAATVQFKCGAPASTPYLLTSQAQDTSGSPSERARPLPGSEFFSCQNCEAVAGCSSGLDSLVPGDEDKPYKCQLCRSSFRYKGNLASHRTVHTGEKPYHCSICGARFNRPANLKTHSRIHSGEKPYKCETCGSRFVQVAHLRAHVLIHTGEKPYPCPTCGTRFRHLQTLKSHVRIHTGEKPYHCDPCGLHFRHKSQLRLHLRQKHGAATNTKVHYHILGGP
# B6: POU4F3, Q15319 (protein)
# chain: MMAMNSKQPFGMHPVLQEPKFSSLHSGSEAMRRVCLPAPQLQGNIFGSFDESLLARAEALAAVDIVSHGKNHPFKPDATYHTMSSVPCTSTSSTVPISHPAALTSHPHHAVHQGLEGDLLEHISPTLSVSGLGAPEHSVMPAQIHPHHLGAMGHLHQAMGMSHPHTVAPHSAMPACLSDVESDPRELEAFAERFKQRRIKLGVTQADVGAALANLKIPGVGSLSQSTICRFESLTLSHNNMIALKPVLQAWLEEAEAAYREKNSKPELFNGSERKRKRTSIAAPEKRSLEAYFAIQPRPSSEKIAAIAEKLDLKKNVVRVWFCNQRQKQKRMKYSAVH
# B7: MYCL, P12524 (protein)
# chain: MDYDSYQHYFYDYDCGEDFYRSTAPSEDIWKKFELVPSPPTSPPWGLGPGAGDPAPGIGPPEPWPGGCTGDEAESRGHSKGWGRNYASIIRRDCMWSGFSARERLERAVSDRLAPGAPRGNPPKASAAPDCTPSLEAGNPAPAAPCPLGEPKTQACSGSESPSDSENEEIDVVTVEKRQSLGIRKPVTITVRADPLDPCMKHFHISIHQQQHNYAARFPPESCSQEEASERGPQEEVLERDAAGEKEDEEDEEIVSPPPVESEAAQSCHPKPVSSDTEDVTKRKNHNFLERKRRNDLRSRFLALRDQVPTLASCSKAPKVVILSKALEYLQALVGAEKRMATEKRQLRCRQQQLQKRIAYLTGY
# B8: ZNF260, Q3ZCT1 (protein)
# chain: MIGMLESLQHESDLLQHDQIHTGEKPYECNECRKTFSLKQNLVEHKKMHTGEKSHECTECGKVCSRVSSLTLHLRSHTGKKAYKCNKCGKAFSQKENFLSHQKHHTGEKPYECEKVSIQMPTIIRHQKNHTGTKPYACKECGKAFNGKAYLTEHEKIHTGEKPFECNQCGRAFSQKQYLIKHQNIHTGKKPFKCSECGKAFSQKENLIIHQRIHTGEKPYECKGCGKAFIQKSSLIRHQRSHTGEKPYTCKECGKAFSGKSNLTEHEKIHIGEKPYKCNECGTIFRQKQYLIKHHNIHTGEKPYECNKCGKAFSRITSLIVHVRIHTGDKPYECKVCGKAFCQSSSLTVHMRSHTGEKPYGCNECGKAFSQFSTLALHMRIHTGEKPYQCSECGKAFSQKSHHIRHQRIHTH
# Biological target: nucleoprotein N of Crimean-Congo hemorrhagic fever virus
# Experiment: AlphaScreen luminescence signal relative to Venus negative control (fold); higher = stronger binding to CCHFV N
# Description: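 AlphaScreen binding of cell-free made, FLAG-GST-tagged human transcription factors and regulators (crude translation products) to biotinylated N protein; signal as fold of the FLAG-GST-Venus control. One pass.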
row,Binder,AlphaScreen luminescence signal
1,B1,3.21
2,B2,1.44
3,B3,2.51
4,B4,1.53
5,B5,2
6,B6,1.81
7,B7,2.42
8,B8,2.56
